In a collection of fitness landscapes (doi:10.1016/j.celrep.2020.107928):
Whole data set: some 81,000 sequences, median “one-hybrid fitness for binding NBS DNA” near -0.1, cut for the highest 2% near 0.36. This is one part of the list.

B1: Caulobacter ParB omega fusion; a variant is named by its letters at X, in order, B8GW30 (parent)
chain: MESVVVGEPGMSEGRRGLGRGLSALLGEVDAAPAQAPGEQLGGSREAPIEILQRNPDQPRRTFREEDLEDLSNSIREKGVLQPILVRPSPDTAGEYQIVAGERAWRAAQRAGLKTVPIMVRELDDLAVLEIGIIENVQRADLNVLEEALSYKVLMEKFERTQENIAQTIGKSXSHVANXMRLLXLPDEVQSYLVSGELTAXHARAIAAAADPVALAKQIIEGGLSVRETEALARKAPNLSAGKSKGGRPPRVKDTDTQALESDLSSVLGLDVSIDHRGSTGTLTITYATLEQLDDLCNRLTRGI

Variants of: B1
Test: one-hybrid fitness for binding NBS DNA (the Noc-binding site; scaled: cognate 1, non-cognate 0); higher = stronger binding
Settings: with NBS DNA site
In short: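 Bacterial one-hybrid selection in E. coli USO rpoZ- hisB- pyrF- with a HIS3 reporter carrying the site 19 bp from the promoter, screening Caulobacter ParB libraries with four specificity codons randomised (NNS). Cells grew 48 hours at 37°C on M9-minus-histidine plus 0.1 mM IPTG and 5 mM 3-AT. Plasmids before and after selection were Illumina-sequenced, three replicate libraries pooled, and variants under 10 reads dropped. Fitness is the log change in variant-to-wild-type read ratio, rescaled to cognate 1, non-cognate 0.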

| Variant | one-hybrid fitness for binding NBS DNA |
| --- | --- |
| DAPY | ≤ 0.2 |
| VGQR | ≤ 0.2 |
| IPGS | ≤ 0.2 |
| RQCF | ≤ 0.2 |
| VFGK | ≤ 0.2 |
| MANG | ≤ 0.2 |
| FTRG | ≤ 0.2 |
| WGTC | ≤ 0.2 |
| VVCC | ≤ 0.2 |
| EKHR | ≤ 0.2 |
| RKHL | ≤ 0.2 |
| NDSY | ≤ 0.2 |
| DNGR | ≤ 0.2 |
| RLYG | ≤ 0.2 |
| TDIR | ≤ 0.2 |
| TSDW | ≤ 0.2 |
| HCKR | 0.251 |
| DDYC | ≤ 0.2 |
| SVAN | ≤ 0.2 |
| AKVT | ≤ 0.2 |
| VQGW | ≤ 0.2 |
| EMNS | ≤ 0.2 |
| LWHC | ≤ 0.2 |
| QKMT | 0.424 |
| LQYT | ≤ 0.2 |
| MPNS | ≤ 0.2 |

| Variant | one-hybrid fitness for binding NBS DNA |
| --- | --- |
| KYSW | ≤ 0.2 |
| RMNS | 0.481 |
| RWKS | ≤ 0.2 |
| KSQT | ≤ 0.2 |
| INNG | ≤ 0.2 |
| KVYG | ≤ 0.2 |
| DTLY | ≤ 0.2 |
| YHRL | ≤ 0.2 |
| KWTN | ≤ 0.2 |
| HKIG | ≤ 0.2 |
| QHWG | ≤ 0.2 |
| SCAG | ≤ 0.2 |
| AMEL | ≤ 0.2 |
| FFST | ≤ 0.2 |
| AQTY | ≤ 0.2 |
| VWAT | ≤ 0.2 |
| FGAI | ≤ 0.2 |
| PDCG | ≤ 0.2 |
| QAFI | ≤ 0.2 |
| STAW | ≤ 0.2 |
| EALR | ≤ 0.2 |
| ELTE | ≤ 0.2 |
| MIFR | ≤ 0.2 |
| VSEV | ≤ 0.2 |
| QPTC | ≤ 0.2 |
| MSWV | ≤ 0.2 |

| Variant | one-hybrid fitness for binding NBS DNA |
| --- | --- |
| TAIW | ≤ 0.2 |
| HSTM | ≤ 0.2 |
| RHSS | 0.438 |
| LKKI | ≤ 0.2 |
| IGQR | ≤ 0.2 |
| FGRD | ≤ 0.2 |
| YTHM | ≤ 0.2 |
| RSII | ≤ 0.2 |
| GSDV | ≤ 0.2 |
| VFDG | ≤ 0.2 |
| TWNE | ≤ 0.2 |
| LWNA | ≤ 0.2 |
| VNTF | ≤ 0.2 |
| TCDC | ≤ 0.2 |
| KRLG | ≤ 0.2 |
| DQLR | ≤ 0.2 |
| FGGP | ≤ 0.2 |
| FGNI | ≤ 0.2 |
| ACMF | ≤ 0.2 |
| HNNS | ≤ 0.2 |
| GMVT | ≤ 0.2 |
| PRAK | ≤ 0.2 |
| SHIF | ≤ 0.2 |
| AEVS | ≤ 0.2 |
